In the supplement of paper PMC3334620:
In all, about 33,000 sequences were measured (“E-score (-0.5 to 0.5)”: median about -0.016, highest 2% from about 0.31 on). Some of the results follow.

These sequences were tested against Cst6 (UniProt P40535) (assay: PBM E-score (8-mer binding enrichment) (E-score (-0.5 to 0.5)); higher = stronger / more preferred TF binding; most listed sequences are background and not binding sites). Settings: protein concentration: 200 nM; construct: GST-DNA-binding domain.
Procedure: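 Universal 'all 10-mer' protein binding microarrays (Agilent AMADID 015681) probed with GST-tagged S. cerevisiae TFs (full-length or DBD) made by in vitro transcription/translation (PURExpress), about 100-200 nM. Bound TF was detected with fluorescent anti-GST. Each ungapped 8-mer (which stands for itself and its reverse complement) is scored by the PBM enrichment score (E-score), a modified Wilcoxon-Mann-Whitney statistic from -0.5 to +0.5, computed with the Universal PBM Analysis Suite. Scale: above 0.35 generally sequence-specific binding.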

Sequence | PBM E-score
GATAAGCA | 0.115
ACGCAGCA | -0.0415
AGGCACAC | -0.139
CATCTGAG | -0.0474
AGGGGTGC | -0.184
CGATACTA | 0.1
AGCTTCGG | -0.245
ATGATTGC | 0.24
CACTATCG | -0.00469
TGATGGCA | 0.0289
CTCCGCAA | -0.23
AGAAGATA | 0.133
CGTTTATA | 0.248
CCATTAAA | 0.0506
CACTGGCC | -0.15
CCTCGAGG | 0.104
CTTCCGGC | -0.192
ACCCTGAG | -0.163
ATAACTAG | 0.0926
GACGCACA | 0.183
CTATGATC | 0.0289
ACACCTCA | -0.0121
ACCGGCTC | -0.201
ACTCTCGG | -0.0365
TCCGAAAA | -0.0917

Sequence | PBM E-score
GAATCGGC | 0.115
CAAAGACC | -0.00163
CACCCATA | -0.11
GATGGACA | 0.00149
CCAGGTTA | -0.157
GTTCAAAA | 0.0819
GTGAGAGA | 0.0107
ACGTGACC | 0.0221
GAATACCC | -0.164
CTTTATAC | 0.0705
ACAAGTAA | -0.0276
CGCCAGAC | -0.107
CAGACTCC | -0.167
ACTAATCT | 0.0267
AGGCTGGA | -0.301
CATCCGCC | -0.0652
ACACGATC | 0.0915
CCGTCATC | 0.385
ATGATTCA | 0.0717
AGATTAGA | -0.00837
AAGTTCGT | -0.00263
GAGCTGCA | -0.0817
ATGACCTA | 0.346
CGCGCCCC | -0.0815
ACCGCTTG | -0.0497

Sequence | PBM E-score
CAACGGGA | 0.0126
CGACATCC | -0.0566
AGATTTCC | -0.0185
ACGTTCTA | -0.00984
AAGGCAAA | 0.166
CTGGTCTA | -0.156
GCCGACTA | -0.0181
AGTAGAAT | 0.249
TACGAGAA | 0.00123
CCGCATCG | -0.0611
TCGCGAAA | 0.0515
TGAAATAA | 0.221
CTAAAATC | 0.0537
GCTTTTAA | -0.0378
AACAGGAG | -0.0951
CGCGTGAC | 0.16
GTGGTACA | -0.122
AGACGAGC | -0.203
GCCTCCAA | -0.0808
GCCGGAGA | -0.102
CTGCGCTA | -0.26
CCATGACG | 0.457
GTAGCTGA | -0.0514
GCACAGAC | 0.0277
CGAAGGTA | 0.0246

Sequence | PBM E-score
ACATTTGG | -0.0495
ATAAAGGA | -0.219
AAAAGAAC | 0.0754
CTCGATAA | 0.0901
CCCCGTCG | -0.187
AGACACAT | -0.114
CGGTATGC | -0.111
ACGGCATG | 0.126
CACCACGA | 0.148
AGACACAG | -0.115
CAGTATGA | 0.159
AAAATAAT | 0.302
AGTAGCGA | -0.0145
AGTCCGGA | -0.11
CCAATAAA | 0.158
GACCTGTA | -0.0339
CTGGTTGA | -0.235
GGAAGCTA | -0.156
GAAAGTGC | -0.152
CTTTAAGA | 0.149
GAGCGACA | -0.0394
GCTGAGCA | -0.0607
GCCCGCCC | -0.158
GTTAACCA | 0.105
CACAGTAA | 0.243

Sequence | PBM E-score
GTGCAAGA | 0.135
ACTCACAT | 0.057
ATTATTCC | 0.115
ACCGTTCA | -0.132
ACGCAGAC | -0.048
ATGGGTGG | 0.0397
ATGTGACG | 0.433
CGTATACG | 0.129
AACTAGAC | 0.241
AGCTCGAG | -0.225
GAATTTCC | 0.0654
ATCAGGCC | -0.0722
GAGCGCAC | -0.219
GTCATATA | 0.377
AAGTCGGA | -0.114
AATCAGAT | 0.121
TGCCGCCA | -0.0805
GAAGGAAC | -0.16
CTCTCGAA | -0.0781
GTGAACTA | 0.106
CGGAAGAG | -0.156
GGATATGA | 0.0499
ACAAACTC | 0.0955
AAAAATAC | 0.223
ACCTACGG | -0.224

Sequence | PBM E-score
GCGGACAA | 0.0964
AAGAGTTG | -0.00769
AGTATGCA | -0.0835
CACTCGAA | 0.0172
CTCTACCA | -0.154
AGTAGTGA | 0.177
AGAGGGAT | -0.219
AGGGAGGG | -0.282
GGCTATCA | 0.0107
CACCCGGC | -0.252
GTCCGGAC | 0.00319
CTCGCCAG | -0.203
GTTCCAAC | 0.106
ACTCGCTG | -0.143
ACCTCAGG | -0.184
ACCAATCG | -0.0755
AGAATGAC | 0.354
CAGAGGCG | -0.0136
AAGTGAAT | 0.207
CAGTCTTC | -0.245
TAGTTACA | 0.0807
ATCTAATA | 0.228
CCCCATCA | -0.129
CAGCTATC | -0.2
ACTAGACA | 0.166

Sequence | PBM E-score
CGTAGATC | 0.143
TATTGTGA | 0.149
AGCTTCGC | -0.134
CGTCCTAG | -0.197
AAAGACTA | -0.0453
CAAGGGAG | -0.266
AAGCCGGT | -0.0995
GCGGGAGC | -0.313
ATCCCCAT | 0.00935
ATGTATGC | 0.232
CCGTACGC | 0.12
AATCCTAT | 0.0106
CCAGGTTC | -0.342
CCATCAGC | -0.113
CCCAATCC | -0.262
GGAGACAA | 0.00059
CTTTCCTC | -0.144
GCGACCCA | -0.283
CCCCCCGC | -0.306
GGCAGGCC | -0.332
GCTGTGCA | -0.176
CAAAGGTG | -0.0715
